The list shows a part of the results. One pool of 16,384 single-stranded DNAs met each Rep nickase domain in vitro at 3 µM enzyme and 37 °C for 1 h; the strands have 90 letters, of which the middle is given. The score is log2 (uncut reads / reads without enzyme); more negative means more cut, near 0 not cut, and no call is made. Shares of all reads are compared, so uncut sequences can rise above 0 when many others are cut.

The record followed here is the supplement of paper PMC7826260.

The experiment has as its system T1, Rep nickase domain of wheat dwarf virus.
T1 sequence (protein, residues 1-137, tag omitted): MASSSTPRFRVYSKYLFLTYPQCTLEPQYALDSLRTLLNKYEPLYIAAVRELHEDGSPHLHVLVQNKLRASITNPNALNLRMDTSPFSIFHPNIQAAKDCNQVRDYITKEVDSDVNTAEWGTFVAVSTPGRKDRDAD
Kind of experiment: uncleaved DNA left, log2 of reads against the no-enzyme library (log2 ratio); higher = less cleavage (more negative = more Rep cleavage of the k-mer); sequences stand for … in CTCGTCCG…ACCGGAGA
On the procedure: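 A pool of 90-nt single-stranded DNAs with seven random bases just before the constant AC of the nick site (name = the seven bases) was cut by 3 µM recombinant His6-SUMO-tagged Rep nickase domain (300 nM DNA, 50 mM HEPES pH 8.0, 50 mM NaCl, 1 mM MnCl2, 1 h, 37 °C, three replicates). Uncut DNA was amplified and sequenced.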
Turning to GAGTGCT, the “uncleaved DNA left (log2)” value is -0.0885.

On to TCACCTT, for which the “uncleaved DNA left (log2)” value is -0.138.

As for TAACCTG, the “uncleaved DNA left (log2)” value was -0.00267.

Regarding TACGGAT, the “uncleaved DNA left (log2)” value is 0.11.

As to CACGCGT, the “uncleaved DNA left (log2)” value is -0.233.

As to GCTATCC, the “uncleaved DNA left (log2)” value amounted to 0.0807.

As to GAGAGAT, the “uncleaved DNA left (log2)” value amounted to 0.0926.

Regarding GCATCCG, the “uncleaved DNA left (log2)” value was -0.078.

Turning to CACGAAT, the “uncleaved DNA left (log2)” value is -0.199.

For CGCGCTT, the “uncleaved DNA left (log2)” value is -0.182.

For TTTTCCA, the “uncleaved DNA left (log2)” value is -0.0722.

For the sequence AGCCGAT, the “uncleaved DNA left (log2)” value is -0.0109.

AATTTTT: the “uncleaved DNA left (log2)” value is -0.812.

Regarding TTATGCT, the “uncleaved DNA left (log2)” value is -0.68.

CACTATG: the “uncleaved DNA left (log2)” value was determined as 0.0465.

As for GGTAGTA, the “uncleaved DNA left (log2)” value amounted to 0.0464.

Regarding ACAGCCC, the “uncleaved DNA left (log2)” value was -0.153.

In the case of CGTAAGC, the “uncleaved DNA left (log2)” value was -0.113.

In the case of TCCTTTC, the “uncleaved DNA left (log2)” value is -0.0958.

Regarding GGTGAAC, the “uncleaved DNA left (log2)” value came to 0.129.

As to AGATTGA, the “uncleaved DNA left (log2)” value is 0.0245.

Take CAAATGG: the “uncleaved DNA left (log2)” value is 0.0848.

Turning to CCGGGGT, the “uncleaved DNA left (log2)” value was determined as 0.0484.

Turning to GAGGGGG, the “uncleaved DNA left (log2)” value turned out to be 0.0156.

As to TGGACCA, the “uncleaved DNA left (log2)” value is 0.219.

In the case of ATGGTTG, the “uncleaved DNA left (log2)” value was -0.0241.

In the case of AACAGGG, the “uncleaved DNA left (log2)” value is 0.0185.

With AAATCCG, the “uncleaved DNA left (log2)” value is -0.0321.

In the case of GTTAGTT, the “uncleaved DNA left (log2)” value is -0.035.

For GGCCTCA, the “uncleaved DNA left (log2)” value was 0.221.

For the sequence TGTTTGA, the “uncleaved DNA left (log2)” value came out at 0.131.

Turning to TCCCGTC, the “uncleaved DNA left (log2)” value is -0.0701.

In the case of ACCTTTT, the “uncleaved DNA left (log2)” value is -0.142.

Regarding AACACGG, the “uncleaved DNA left (log2)” value was -0.0342.

On to GGCTCAT, for which the “uncleaved DNA left (log2)” value turned out to be 0.171.

On to GACCTTC, for which the “uncleaved DNA left (log2)” value was -0.0172.

Take TATCCGT: the “uncleaved DNA left (log2)” value was 0.112.

With CTGATTC, the “uncleaved DNA left (log2)” value is -0.156.

For the sequence CGCATCC, the “uncleaved DNA left (log2)” value is -0.104.

Regarding TCAGGCA, the “uncleaved DNA left (log2)” value stood at 0.000902.
